Among all 220,000 compounds or so, about 5,700 (2.6%) were called active. Inconclusive results, whose numbers are uncertain, are shown with a selection of clear calls. Calls come from the whole dose curve; as a rule, active = well fitted inhibition curve with a large enough effect; inconclusive = small, poorly fitted or top-dose-only effect; inactive = no such curve, though single readings can be large or run the other way. Potencies of inconclusive entries are doubtful fits and often do not repeat.
target: Lysine-specific demethylase 5B (Homo sapiens) (UniProt Q9UGL1); assay: Primary screen for KDM5B Histone Demethylases FDH-coupled qHTS; details: FDH-coupled NADH fluorescence (FDH is formaldehyde dehydrogenase); activity change, negative = inhibition: at 57.7 µM (top of the series) unless noted; note: nearly all actives have a fitted effect of over 70% in size; for activity change, negative = inhibition: 0% is about no effect
Chain of UniProt Q9UGL1 (Q9UGL1 whole entry, looked up): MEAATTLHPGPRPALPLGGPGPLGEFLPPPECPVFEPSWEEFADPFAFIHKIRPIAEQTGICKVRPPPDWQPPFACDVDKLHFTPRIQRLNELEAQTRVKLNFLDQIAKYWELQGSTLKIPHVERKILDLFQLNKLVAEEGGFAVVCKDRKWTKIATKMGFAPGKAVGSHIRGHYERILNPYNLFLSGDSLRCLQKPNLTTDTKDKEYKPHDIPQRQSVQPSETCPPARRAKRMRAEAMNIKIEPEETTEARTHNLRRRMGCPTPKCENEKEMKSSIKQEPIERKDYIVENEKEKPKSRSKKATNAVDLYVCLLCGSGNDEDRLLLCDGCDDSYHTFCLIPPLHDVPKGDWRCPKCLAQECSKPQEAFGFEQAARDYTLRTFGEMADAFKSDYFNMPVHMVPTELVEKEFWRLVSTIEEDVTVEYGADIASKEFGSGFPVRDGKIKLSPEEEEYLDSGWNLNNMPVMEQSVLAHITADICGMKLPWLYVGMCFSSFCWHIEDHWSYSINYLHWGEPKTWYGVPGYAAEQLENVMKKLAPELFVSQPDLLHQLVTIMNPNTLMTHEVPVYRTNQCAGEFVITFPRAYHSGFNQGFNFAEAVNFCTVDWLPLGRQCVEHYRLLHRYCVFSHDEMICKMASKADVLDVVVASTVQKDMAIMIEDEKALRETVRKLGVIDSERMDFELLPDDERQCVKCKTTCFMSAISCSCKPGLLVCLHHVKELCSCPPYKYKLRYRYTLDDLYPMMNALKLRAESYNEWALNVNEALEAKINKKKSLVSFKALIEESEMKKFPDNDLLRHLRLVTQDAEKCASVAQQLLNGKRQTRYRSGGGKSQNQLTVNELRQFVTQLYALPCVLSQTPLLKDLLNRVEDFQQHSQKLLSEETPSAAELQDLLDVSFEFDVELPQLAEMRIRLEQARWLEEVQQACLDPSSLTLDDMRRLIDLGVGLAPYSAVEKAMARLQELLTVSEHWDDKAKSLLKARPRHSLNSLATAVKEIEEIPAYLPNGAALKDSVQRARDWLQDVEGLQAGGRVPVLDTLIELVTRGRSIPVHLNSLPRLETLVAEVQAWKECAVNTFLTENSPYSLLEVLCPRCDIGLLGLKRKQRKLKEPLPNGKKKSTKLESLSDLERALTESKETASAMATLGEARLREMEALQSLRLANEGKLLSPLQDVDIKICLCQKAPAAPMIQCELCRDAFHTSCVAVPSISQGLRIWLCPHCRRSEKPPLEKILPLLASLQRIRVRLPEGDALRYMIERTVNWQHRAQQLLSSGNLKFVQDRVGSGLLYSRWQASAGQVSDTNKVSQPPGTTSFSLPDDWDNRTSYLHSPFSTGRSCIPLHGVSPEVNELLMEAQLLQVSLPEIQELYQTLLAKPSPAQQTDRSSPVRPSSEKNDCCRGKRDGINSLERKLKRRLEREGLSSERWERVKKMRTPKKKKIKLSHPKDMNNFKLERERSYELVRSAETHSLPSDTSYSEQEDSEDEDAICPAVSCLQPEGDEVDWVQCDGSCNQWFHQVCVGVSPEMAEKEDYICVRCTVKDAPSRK
Summary of the method: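 Here, H3K4me3 peptide (12.5 µM in substrate mix) is demethylated by KDM5BΔAP, 200 nM final, after 10 min compound exposure. Formaldehyde product is coupled through FDH (0.25 U/mL in mix) to NADH fluorescence; 30-min ΔRFU feeds dose-response curves.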
Potency is the fitted concentration of half-maximal effect; tags give direction and shape of the fitted curve.

Row | SMILES | Potency | activity change, negative = inhibition
1 | Cc1noc(C)c1-c1cc2c(cc(-c3ccccc3)n2C)c(-c2ccnn2C)n1 | inactive | –
2 | O=[N+]([O-])c1ccccc1CN1C[C@H](O)C[C@H]1c1nc(-c2ccc(F)cc2)no1 | active: 25.1 µM | –
3 | Cc1noc(C)c1-c1cc2cc(CO)oc2c(N2CCN(c3ccccn3)CC2)n1 | inconclusive: 28.2 µM [inhibitor, single point] | –
4 | CC(C)N1CCC2(CC1)CN(C(=O)Cc1ccsc1)Cc1ccccc1O2 | inactive | –
5 | CCC(Sc1nncn2c1cc1sccc12)C(=O)Nc1cccc(OC)c1 (stereo not given) | inconclusive: 25.1 µM [inhibitor, partial curve, poor fit] | –
6 | CN(CC(=O)Nc1cc2[nH]c(=O)[nH]c2cc1Br)Cc1ccccc1N1CCOCC1 | inactive | –
7 | O=C(NCC(c1ccco1)S(=O)(=O)c1ccccc1)c1ccc2c(c1)OCO2 (stereo not given) | inactive | –
8 | CC(=O)N1Cc2ccccc2OC2(CCN(C(=O)N(C)C)CC2)C1 | inactive | –
9 | Cc1cc(C)c2c(=O)cc(CSCC(=O)Nc3nnc(C)s3)[nH]c2c1 | inconclusive: 3.55 µM [inhibitor, partial curve, poor fit] | –
10 | CCN(CC)S(=O)(=O)c1ccc(S(=O)(=O)N2CCCC2c2cccn2C)cc1 (stereo not given) | inactive | –
11 | Cc1cc(C)c2c(=O)n(CC(=O)NC3CCCC3)sc2n1 | inconclusive: 11.2 µM [inhibitor, partial curve, poor fit] | –
12 | CCOCC1(C)COc2ccc(C(=O)Nc3cccnc3)cc2N1 (stereo not given) | inconclusive: 63.1 µM [inhibitor, partial curve, poor fit] | –
13 | COCCN1Cc2ccc(NCc3ccccc3)nc2C(C)(C(=O)Nc2ccccc2)C1 (stereo not given) | inconclusive: 39.8 µM [inhibitor, single point] | –
14 | CC1Oc2ccccc2C=C1/C=C/C(=O)c1ccc(O)cc1 (stereo not given) | inconclusive: 31.6 µM [inhibitor, partial curve, poor fit] | –
15 | O=C(c1cc(=O)c2cc(F)ccc2o1)N(Cc1cccs1)c1ccccn1 | inactive | –
16 | Cc1cc(=O)n2c3ccccc3n(CC(O)CN3CCCCC3)c2c1C#N (stereo not given) | inconclusive: 22.4 µM [inhibitor, partial curve, poor fit] | –
17 | COCCN1CC(CO)C2(CCN(C(=O)c3ccc4ncccc4c3)CC2)C1 (stereo not given) | inconclusive: 15.8 µM [inhibitor, partial curve] | –
18 | CCCCCNC(=O)Cc1csc2nc(C)c(-c3cc(C)n(-c4ccccc4CC)n3)c(=O)n12 | inconclusive: 31.6 µM [inhibitor, partial curve, poor fit] | –
19 | Cc1cc(C)nc(NC2=NCC(=O)N2c2ccc(Cl)cc2Cl)n1 | inactive | –
20 | Fc1ccc(CNc2ncnc3c2c(-c2ccccc2)cn3-c2ccccc2)cc1 | inconclusive: 35.5 µM [inhibitor, partial curve, poor fit] | –
21 | O=C(c1ccccc1)N1CCNc2cnc(Nc3cccc(C(F)(F)F)c3)nc2C1 | inconclusive: 15.8 µM [inhibitor, partial curve, poor fit] | –
22 | COc1ccc(S(=O)(=O)Oc2ccc3oc(=O)c(-c4ccc(OC)c(OC)c4)c(C)c3c2)cc1 | inconclusive: 5.62 µM [inhibitor, full curve, poor fit] | –

Row | SMILES | Potency | activity change, negative = inhibition
23 | COc1cccc(F)c1-c1nc(C)c(C(=O)Nc2ccc3c(c2)OCO3)s1 | inactive | –
24 | CN(C(=O)CSc1nnc2[nH]c(=O)cc(-c3ccccc3)n12)c1ccccc1 | inconclusive: 4.47 µM [inhibitor, full curve, poor fit] | –
25 | N#C/C(=C/c1ccc(OC(F)(F)C(F)C(F)(F)F)cc1)C(=O)NC1CC1 (stereo not given) | inconclusive: 22.4 µM [inhibitor, single point] | –
26 | O=C1Nc2ccccc2CC12CCCN2Cc1ccc(C(F)(F)F)cc1 (stereo not given) | inconclusive: 56.2 µM [inhibitor, partial curve, poor fit] | –
27 | OC(COCc1ccccc1F)Cn1nnc(-c2ccc(Br)cc2)n1 (stereo not given) | inactive | –
28 | COc1ccc(-c2ccc(CCC(=O)Nc3ccc(OC)c(Cl)c3)o2)cc1 | inconclusive: 28.2 µM [inhibitor, single point] | –
29 | O=C(CSc1nccnc1N1CCN(c2ccccc2)CC1)Nc1ccccc1Cl | inconclusive: 31.6 µM [inhibitor, single point] | –
30 | CCN1c2cc(C(=O)N3CCN(c4cccc(C)c4)CC3)ccc2C(=O)N2CCCCC21 (stereo not given) | inconclusive: 28.2 µM [inhibitor, single point] | –
31 | O=C(Cn1c(=O)n(Cc2ccc(F)cc2)c(=O)c2sccc21)NCc1ccco1 | inconclusive: 39.8 µM [inhibitor, single point] | –
32 | Cc1ccc(-c2ccc(C=O)o2)cc1 | inconclusive: 28.2 µM [inhibitor, single point] | –
33 | COCCOC1CCOC2(CCN(C(=O)c3ccc(OC)nc3)CC2)C1 (stereo not given) | inactive | –
34 | COc1cccc(C(O)c2nc(C(=O)Nc3ccc(OC)c(OC)c3)c(C)o2)c1 (stereo not given) | inactive | –
35 | O=C1CC(c2ccccc2)N(Cc2ccncc2)CCCN(C(=O)C2(c3ccccc3)CC2)CCN1 (stereo not given) | inconclusive: 28.2 µM [inhibitor, partial curve, poor fit] | –
36 | CCOC(=O)c1cc(-c2ccccc2)n(CCCC(=O)Nc2ccc(CC)cc2)c1C | inconclusive: 35.5 µM [inhibitor, single point] | –
37 | CC(C)(C)C1CCc2onc(C(=O)Nc3sc4c(c3C(N)=O)CCCC4)c2C1 (stereo not given) | inconclusive: 25.1 µM [inhibitor, single point] | –
38 | CCCc1nnc(NC(=O)c2nc(S(=O)(=O)Cc3ccc(C)cc3)ncc2Cl)s1 | inconclusive: 17.8 µM [inhibitor, partial curve, poor fit] | –
39 | O=C(c1ccc(C(F)(F)F)cc1)N1CCC2(CC1)CCN(Cc1cccs1)c1ccccc1O2 | inconclusive: 14.1 µM [inhibitor, partial curve, poor fit] | –
40 | CC(O)c1cc2n(n1)CCN(Cc1cc(=O)n3nc(C4CC4)sc3n1)C2 (stereo not given) | active: 25.1 µM | –
41 | Cc1ccc2nc(-c3ccccn3)c(Nc3ccc(F)cc3)n2c1 | inconclusive: 50.1 µM [inhibitor, single point] | –
42 | Cc1cc(C(=O)COc2ccc3ccc(=O)oc3c2)c(C)n1CC(F)(F)F | inconclusive: 12.6 µM [inhibitor, partial curve, poor fit] | –
43 | CN1CCN(CCCNC(=O)c2cnn(-c3ccccc3)c2C2CCN(C(=O)OC(C)(C)C)CC2)CC1 | – | inconclusive: -35.4% [inhibitor]
44 | CCCC(=O)N1CC2(CCCN2C2COC2)Cc2ccccc21 (stereo not given) | inconclusive: 56.2 µM [inhibitor, partial curve, poor fit] | –

Row | SMILES | Potency | activity change, negative = inhibition
45 | CCN(CC)c1cc(CCC(=O)NCc2ccc(N3CCOCC3)cc2)ccn1 | inconclusive: 15.8 µM [inhibitor, partial curve, poor fit] | –
46 | COc1ccc(-c2noc(C3CC(=O)N(c4cc(C)cc(C)c4)C3)n2)cc1 (stereo not given) | – | inconclusive: -32.3% [inhibitor]
47 | O=C(CCc1ccc(-c2cccs2)o1)NC[C@@H]1C[C@H](F)CN1 | inconclusive: 22.4 µM [inhibitor, partial curve, poor fit] | –
48 | CCc1ccc(NC(=O)C2=C(C)NC(Nc3nc4ccccc4o3)=NC2c2ccccc2)cc1 (stereo not given) | inactive | –
49 | CC(NC(=O)c1nccnc1N)c1cccs1 (stereo not given) | inconclusive: 22.4 µM [inhibitor, partial curve, poor fit] | –
50 | O=C(NCc1ccc(F)cc1)c1cc2n(n1)CC(c1ccc3c(c1)OCO3)OC2 (stereo not given) | inconclusive: 14.1 µM [inhibitor, partial curve, poor fit] | –
51 | Cn1c(NCCO)nc2c(c1=O)C1(CCCC1)Cc1ccccc1-2 | inconclusive: 22.4 µM [inhibitor, partial curve, poor fit] | –
52 | CC(OC(=O)c1cc2ccccc2s1)C(=O)N1CCNC1=O (stereo not given) | inactive | –
53 | Cc1nc2ccccc2nc1CN1CCC2(CCC(=O)N(CCO)C2)CC1 | inconclusive: 20 µM [inhibitor, single point] | –
54 | COc1ccc(C)cc1NC(=O)N1CCCC2(C1)Nc1cccnc1NC2=NC1CCCC1 (stereo not given) | active: 28.2 µM | –
55 | O=C1NCCCCCCN(Cc2ccncc2)[C@@H]2CN(C(=O)Nc3ccccc3F)CC[C@@H]12 | inconclusive: 28.2 µM [inhibitor, partial curve] | –
56 | COCCc1noc([C@@H]2CN(C3CCCCCC3)C[C@H]2CO)n1 | inactive | –
57 | O=C([C@@H]1C[C@H](F)CN1C(=O)Nc1cccc(C(F)(F)F)c1)N1CCc2ccccc2C1 | inactive | –
58 | O=C1CN(C(=O)c2c(F)cccc2F)C(c2ccc(F)cc2)c2cc(Br)ccc2N1 (stereo not given) | inconclusive: 22.4 µM [inhibitor, single point] | –
59 | Cc1nnc(NC(=O)c2nc(S(=O)(=O)Cc3ccccc3)ncc2Cl)s1 | inconclusive: 15.8 µM [inhibitor, partial curve, poor fit] | –
60 | COc1cc(Cl)c(C)cc1NC(=O)C(C)N1CCN(S(=O)(=O)c2ccccc2C#N)CC1 (stereo not given) | inactive | –
61 | CC(C)NC(=O)c1nc(-c2ccsc2)c2cnccn12 | active: 39.8 µM | –
62 | O=C(c1cc(-c2cccc(C(F)(F)F)c2)c2nncn2n1)N1CCOCC1 | inconclusive: 56.2 µM [inhibitor, partial curve, poor fit] | –
63 | N#C/C(=C/c1cccc(O)c1)c1nc2ccccc2o1 | inconclusive: 14.1 µM [inhibitor, partial curve, poor fit] | –
64 | C=CCNc1nc(-c2ccc3c(c2)CC(C)N3S(C)(=O)=O)cs1 (stereo not given) | inactive | –
65 | O=C(NCCO)c1cc2c([nH]c3ccccc32)c(-c2ccccc2)n1 | inconclusive: 28.2 µM [inhibitor, partial curve, poor fit] | –

Source: PubChem BioAssay AID1347165 (National Center for Advancing Translational Sciences (NCATS), 2019)
